Measured values: a collection of fitness landscapes (doi:10.1016/j.celrep.2020.107928)
In all, about 81,000 sequences were measured (“one-hybrid fitness for binding parS DNA”: median about -0.17, highest 2% from about 0.51 on). Some of the results follow.

B1: Caulobacter ParB omega fusion; a variant is named by its letters at X, in order, B8GW30 (parent)
chain: MESVVVGEPGMSEGRRGLGRGLSALLGEVDAAPAQAPGEQLGGSREAPIEILQRNPDQPRRTFREEDLEDLSNSIREKGVLQPILVRPSPDTAGEYQIVAGERAWRAAQRAGLKTVPIMVRELDDLAVLEIGIIENVQRADLNVLEEALSYKVLMEKFERTQENIAQTIGKSXSHVANXMRLLXLPDEVQSYLVSGELTAXHARAIAAAADPVALAKQIIEGGLSVRETEALARKAPNLSAGKSKGGRPPRVKDTDTQALESDLSSVLGLDVSIDHRGSTGTLTITYATLEQLDDLCNRLTRGI

Variants of: B1
Test: one-hybrid fitness for binding parS DNA (scaled: cognate 1, non-cognate 0); higher = stronger binding
Settings: with parS DNA site
Summary of the method: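 Fitness is the rescaled log change in variant-to-wild-type read ratio, measured by Illumina sequencing of plasmids before and after bacterial one-hybrid selection. The scale puts cognate at 1 and non-cognate at 0. Selection of Caulobacter ParB libraries, four specificity codons randomised, took place in E. coli USO with a HIS3 reporter, site 19 bp from the promoter, over 48 hours at 37°C on M9-minus-histidine with 0.1 mM IPTG and 5 mM 3-AT.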

Variant	one-hybrid fitness for binding parS DNA
RKHS	0.832
LSSA	≤ 0.2
NFPC	≤ 0.2
HNMF	≤ 0.2
IVEN	≤ 0.2
IDPI	≤ 0.2
RNLS	0.895
DIML	≤ 0.2
QAGQ	≤ 0.2
AVCR	≤ 0.2
THVL	≤ 0.2
TNEH	≤ 0.2
LDKI	≤ 0.2
SYQE	≤ 0.2
VPLP	≤ 0.2
TEPA	≤ 0.2
KFIG	≤ 0.2
KRLV	≤ 0.2
CTIR	≤ 0.2
LNKS	≤ 0.2
NLYI	≤ 0.2
CSIS	≤ 0.2
PADA	≤ 0.2
KWFG	≤ 0.2

Variant	one-hybrid fitness for binding parS DNA
SCPL	≤ 0.2
RINL	≤ 0.2
LYYF	≤ 0.2
MNIT	≤ 0.2
MLYL	≤ 0.2
CQYS	≤ 0.2
KSDD	≤ 0.2
AHLV	≤ 0.2
KKLC	≤ 0.2
RQHV	≤ 0.2
QSQY	≤ 0.2
WYHS	≤ 0.2
EWYS	≤ 0.2
EMKR	≤ 0.2
DRVK	≤ 0.2
RATI	≤ 0.2
QRGW	≤ 0.2
QSPM	≤ 0.2
TRGK	≤ 0.2
TVNI	≤ 0.2
IFLD	≤ 0.2
APNF	≤ 0.2
LVTH	≤ 0.2
DGFR	≤ 0.2

Variant	one-hybrid fitness for binding parS DNA
NEGR	≤ 0.2
TYND	≤ 0.2
IAEL	≤ 0.2
RNLM	≤ 0.2
ADLN	≤ 0.2
WNPS	≤ 0.2
KRCC	≤ 0.2
TYPT	≤ 0.2
TTKY	≤ 0.2
SVQW	≤ 0.2
DSQR	≤ 0.2
DPVI	≤ 0.2
DADG	≤ 0.2
FNEI	≤ 0.2
NYTG	≤ 0.2
AAEV	≤ 0.2
KILA	≤ 0.2
YWSC	≤ 0.2
VPCR	≤ 0.2
DIVG	≤ 0.2
RLFP	≤ 0.2
RCWT	0.908
HGYG	≤ 0.2
PLGT	≤ 0.2

Variant	one-hybrid fitness for binding parS DNA
LTAF	≤ 0.2
QTWD	≤ 0.2
ADPL	≤ 0.2
DGWS	≤ 0.2
IETV	≤ 0.2
NIVN	≤ 0.2
SYNN	≤ 0.2
ANDT	≤ 0.2
TRRC	≤ 0.2
TNYG	≤ 0.2
TMMG	≤ 0.2
WYER	≤ 0.2
PKHH	≤ 0.2
LTWM	≤ 0.2
RPIK	≤ 0.2
GKRC	≤ 0.2
DHSS	≤ 0.2
WCTR	≤ 0.2
PAQP	≤ 0.2
MARC	≤ 0.2
NLDK	≤ 0.2
WSDL	≤ 0.2
QQEC	≤ 0.2
NDNA	≤ 0.2

Variant	one-hybrid fitness for binding parS DNA
MEPR	≤ 0.2
ISTR	≤ 0.2
RWAE	≤ 0.2
EKQR	≤ 0.2
GSDF	≤ 0.2
TISW	≤ 0.2
AFIM	≤ 0.2
MPSK	≤ 0.2
MSLR	≤ 0.2
RNLT	0.683
AIHS	≤ 0.2
SQSV	≤ 0.2
RKLK	≤ 0.2
ENVC	≤ 0.2
GDMV	≤ 0.2
LGDI	≤ 0.2
QFCA	≤ 0.2
ILRG	≤ 0.2
ACHA	≤ 0.2
CAPL	≤ 0.2
KSKA	≤ 0.2
PMIG	≤ 0.2
YQIT	≤ 0.2
YFFS	≤ 0.2

Variant	one-hybrid fitness for binding parS DNA
HCNI	≤ 0.2
PPRD	≤ 0.2
PMYN	≤ 0.2
CTKR	≤ 0.2
IDST	≤ 0.2
RHCA	0.55
LMKS	≤ 0.2
RLFD	≤ 0.2
LWKG	≤ 0.2
TTFR	≤ 0.2
AAFF	≤ 0.2
TISI	≤ 0.2
LRGG	≤ 0.2
RPAA	≤ 0.2
REWI	≤ 0.2
ISCL	≤ 0.2
KLFR	≤ 0.2
CTQS	≤ 0.2
ALPR	≤ 0.2
QMVQ	≤ 0.2
SHGW	≤ 0.2
YSPG	≤ 0.2
PRNN	≤ 0.2
RVQI	≤ 0.2

Variant	one-hybrid fitness for binding parS DNA
YRRA	≤ 0.2
QRII	≤ 0.2
ILNV	≤ 0.2
VDSW	≤ 0.2
QCDS	≤ 0.2
KQDS	≤ 0.2
QEQF	≤ 0.2
RCWF	0.363
ATKA	≤ 0.2
EDSS	≤ 0.2
LTLF	≤ 0.2
CLKA	≤ 0.2
RIEK	≤ 0.2
WHMG	≤ 0.2
RAAH	≤ 0.2
KYES	≤ 0.2
QSHP	≤ 0.2
LVSM	≤ 0.2
LPPT	≤ 0.2
DLCL	≤ 0.2
TNHK	≤ 0.2
PCSR	≤ 0.2
MLLS	≤ 0.2
IWPT	≤ 0.2

Variant	one-hybrid fitness for binding parS DNA
MLQH	≤ 0.2
TMGT	≤ 0.2
RSHQ	≤ 0.2
CRNC	≤ 0.2
VMDI	≤ 0.2
QVMW	≤ 0.2
HTLK	≤ 0.2
YTWC	≤ 0.2
VHTT	≤ 0.2
KKSG	≤ 0.2
SERC	≤ 0.2
YIDG	≤ 0.2
QSIL	≤ 0.2
RASG	1
TGAF	≤ 0.2
HLAA	≤ 0.2
NKDD	≤ 0.2
EADR	≤ 0.2
SISS	≤ 0.2
GPQL	≤ 0.2
IGQT	≤ 0.2
SSYS	≤ 0.2
YQMF	≤ 0.2
CSQL	≤ 0.2

Variant	one-hybrid fitness for binding parS DNA
RTNS	0.874
PLFR	≤ 0.2
DSRN	≤ 0.2
KTIT	≤ 0.2
AGPD	≤ 0.2
EPWV	≤ 0.2
PSPC	≤ 0.2
THGE	≤ 0.2
FPTM	≤ 0.2
CHTY	≤ 0.2
NKAY	≤ 0.2
IPAF	≤ 0.2
ETRH	≤ 0.2
DNRM	≤ 0.2
QPLN	≤ 0.2
AQRR	≤ 0.2
LPNP	≤ 0.2
RHIN	≤ 0.2
EIKV	≤ 0.2
ARPY	≤ 0.2
RFHW	≤ 0.2
YQRC	≤ 0.2
DYIT	≤ 0.2
LLKM	≤ 0.2

Variant	one-hybrid fitness for binding parS DNA
SMER	≤ 0.2
RELC	≤ 0.2
RRWA	0.834
VSYS	≤ 0.2
AWVK	≤ 0.2
MFTS	≤ 0.2
QENM	≤ 0.2
HPKW	≤ 0.2
ATYE	≤ 0.2
IGLR	≤ 0.2
CIPT	≤ 0.2
TLPD	≤ 0.2
YEKT	≤ 0.2
RAWN	0.384
AATL	≤ 0.2
KTAT	≤ 0.2
HNWA	≤ 0.2
LCFD	≤ 0.2
DMES	≤ 0.2
GVVD	≤ 0.2
LVFR	≤ 0.2
RLID	≤ 0.2
STKR	≤ 0.2
RFCN	0.375

Variant	one-hybrid fitness for binding parS DNA
NHSC	≤ 0.2
YMYC	≤ 0.2
LSYA	≤ 0.2
CIVG	≤ 0.2
RAYE	≤ 0.2
RPCG	≤ 0.2
RKLV	≤ 0.2
RAKQ	≤ 0.2
GPCD	≤ 0.2
RMVM	0.361
CRTC	≤ 0.2
RCSD	≤ 0.2
QMNF	≤ 0.2
TSTW	≤ 0.2
FSIP	≤ 0.2
YSNN	≤ 0.2
PGWS	≤ 0.2
HYIA	≤ 0.2
DFEF	≤ 0.2
CVRD	≤ 0.2
VMRV	≤ 0.2
RYSA	0.535
MSRL	≤ 0.2
GGDV	≤ 0.2

Variant	one-hybrid fitness for binding parS DNA
TVLT	≤ 0.2
EEFP	≤ 0.2
TCFL	≤ 0.2
PNPV	≤ 0.2
DLIS	≤ 0.2
ICRS	≤ 0.2
QMSS	≤ 0.2
GYEL	≤ 0.2
GGMT	≤ 0.2
ALML	≤ 0.2
WRDW	≤ 0.2
WAPM	≤ 0.2
ASDE	≤ 0.2
LING	≤ 0.2
MDWC	≤ 0.2
FWQR	≤ 0.2
ERSR	≤ 0.2
SQIS	≤ 0.2
KTEF	≤ 0.2
HFIS	≤ 0.2
HQYG	≤ 0.2
YDDS	≤ 0.2
STRA	≤ 0.2
CMLC	≤ 0.2

Variant	one-hybrid fitness for binding parS DNA
LCVT	≤ 0.2
HDSG	≤ 0.2
PKTE	≤ 0.2
CSYS	≤ 0.2
GHMT	≤ 0.2
GYNT	≤ 0.2
GMKS	≤ 0.2
GKTD	≤ 0.2
NNKC	≤ 0.2
QPWL	≤ 0.2
SRIF	≤ 0.2
IYLM	≤ 0.2
NTNM	≤ 0.2
QDAR	≤ 0.2
AYSF	≤ 0.2
RGVS	0.516
YCTN	≤ 0.2
YNMS	≤ 0.2
